Data from doi:10.1101/212704 (bioRxiv, 2017).

T1: GST-MAD1-NTD (human, UniProt Q9Y6D9 1-485)
T1 sequence (looked up): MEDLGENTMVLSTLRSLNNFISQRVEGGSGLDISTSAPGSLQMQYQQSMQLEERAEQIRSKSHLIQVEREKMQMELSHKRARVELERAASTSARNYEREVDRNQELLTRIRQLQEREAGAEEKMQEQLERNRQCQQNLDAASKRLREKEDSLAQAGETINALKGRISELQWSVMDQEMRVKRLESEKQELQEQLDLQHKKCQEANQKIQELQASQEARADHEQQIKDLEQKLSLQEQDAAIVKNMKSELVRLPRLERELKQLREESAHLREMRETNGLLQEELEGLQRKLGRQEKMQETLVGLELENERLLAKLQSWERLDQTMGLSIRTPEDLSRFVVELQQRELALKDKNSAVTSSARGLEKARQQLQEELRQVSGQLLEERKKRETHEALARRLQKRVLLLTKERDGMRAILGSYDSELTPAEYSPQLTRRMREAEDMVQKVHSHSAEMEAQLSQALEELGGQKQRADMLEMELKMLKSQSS

T2: GST-tagged MPS1 (UniProt P33981 1-857)
T2 sequence (looked up): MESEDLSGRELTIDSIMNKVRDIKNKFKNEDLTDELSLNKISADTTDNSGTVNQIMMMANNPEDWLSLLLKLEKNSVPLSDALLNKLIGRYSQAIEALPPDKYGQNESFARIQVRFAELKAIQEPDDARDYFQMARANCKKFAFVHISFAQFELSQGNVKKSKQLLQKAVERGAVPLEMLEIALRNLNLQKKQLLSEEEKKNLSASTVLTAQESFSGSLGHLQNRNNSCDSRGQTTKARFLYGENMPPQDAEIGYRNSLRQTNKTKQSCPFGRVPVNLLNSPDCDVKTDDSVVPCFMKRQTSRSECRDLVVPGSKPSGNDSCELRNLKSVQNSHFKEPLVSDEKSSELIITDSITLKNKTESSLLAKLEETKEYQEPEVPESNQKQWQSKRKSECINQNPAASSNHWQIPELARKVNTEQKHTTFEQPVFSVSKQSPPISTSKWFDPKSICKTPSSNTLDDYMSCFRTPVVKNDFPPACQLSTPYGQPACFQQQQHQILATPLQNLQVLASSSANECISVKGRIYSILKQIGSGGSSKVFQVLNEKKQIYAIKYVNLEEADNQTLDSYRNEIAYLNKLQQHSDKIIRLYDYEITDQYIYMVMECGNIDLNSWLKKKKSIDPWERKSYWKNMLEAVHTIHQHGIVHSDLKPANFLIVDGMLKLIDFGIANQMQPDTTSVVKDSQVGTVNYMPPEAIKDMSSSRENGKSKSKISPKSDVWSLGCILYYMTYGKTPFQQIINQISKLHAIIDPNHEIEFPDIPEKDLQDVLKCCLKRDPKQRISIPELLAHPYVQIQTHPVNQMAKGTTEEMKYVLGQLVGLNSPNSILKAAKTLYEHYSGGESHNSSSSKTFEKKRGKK


Assays:
GST-MAD1-NTD = target: T1, GST-MAD1-NTD; experiment: pull-down
GST-tagged MPS1 = target: T2, GST-tagged MPS1; experiment: pull-down

Row | binding result (GST-MAD1-NTD) | binding result (GST-tagged MPS1) | Binder
1 | binds |  | 6×His-tagged MAD[…]D (natural protein) not shown
2 | binds |  | untagged MAD2^L13A (natural protein) not shown
3 |  | binds | His-tagged MAD2^L13A (natural protein) not shown
